# Results reported in PubChem BioAssay AID1159614 (National Center for Advancing Translational Sciences (NCATS), 2016).
# Screen size: about 45,000 compounds; about 65 (0.1%) were called active. Calls follow the shape of the dose curve; as a rule, active = well fitted activation curve with a large enough effect; inconclusive = small, poorly fitted or top-dose-only effect; inactive = no such curve, though single readings can be large or run the other way. The list shows a part of the results.
# Target: Galactocerebrosidase (Homo sapiens) (UniProt P54803)
# Sequence of UniProt P54803 (P54803 whole entry, looked up): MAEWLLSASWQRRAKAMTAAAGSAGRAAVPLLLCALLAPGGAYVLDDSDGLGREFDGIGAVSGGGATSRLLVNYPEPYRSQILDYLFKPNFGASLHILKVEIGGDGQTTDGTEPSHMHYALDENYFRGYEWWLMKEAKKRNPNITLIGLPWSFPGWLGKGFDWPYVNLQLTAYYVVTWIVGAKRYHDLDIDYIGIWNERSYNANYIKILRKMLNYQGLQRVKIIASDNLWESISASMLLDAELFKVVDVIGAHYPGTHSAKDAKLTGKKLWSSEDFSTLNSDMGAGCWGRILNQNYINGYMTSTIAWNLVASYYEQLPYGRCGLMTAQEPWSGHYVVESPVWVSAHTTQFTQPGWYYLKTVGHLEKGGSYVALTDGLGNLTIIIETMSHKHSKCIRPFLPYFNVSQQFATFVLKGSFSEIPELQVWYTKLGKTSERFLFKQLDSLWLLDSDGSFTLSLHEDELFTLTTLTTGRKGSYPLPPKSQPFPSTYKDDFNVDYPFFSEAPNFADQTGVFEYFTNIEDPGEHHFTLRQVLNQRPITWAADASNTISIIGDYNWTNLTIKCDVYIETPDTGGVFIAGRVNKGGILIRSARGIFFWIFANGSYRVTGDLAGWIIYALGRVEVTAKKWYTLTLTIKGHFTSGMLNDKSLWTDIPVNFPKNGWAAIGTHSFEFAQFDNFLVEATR
# Assay: A Novel Cell-Based Assay to Identify Small Molecules for B -Galactocerebrosidase; also: nearly all actives have a fitted effect of over 65% in size; as to activation: 0% is about no effect
# Conditions: 145M-Twi-hGALC-G270D cells (Twitcher mouse brain line with human GALC G270D), HMU-beta-Gal fluorescence, 48 h; series mostly up to 57.5 µM; activation: at the top concentration
# In short: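 Fluorescence readout: HMU-β-gal cleavage by mutant GALC (0.1 mM final, citrate/phosphate pH 5.2 with 1 mg/mL taurocholate), stopped with carbonate/bicarbonate plus Triton X-100. Cells: murine Twitcher 145M-Twi expressing human G270D GALC; qHTS for activators.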
# Potency is read from the fitted curve at half-maximal effect.
Compound,activation,Potency
Cc1c(C(=O)N2CCCCCC2)c(S(=O)(=O)NCc2ccc(Br)cc2)c(C)n1C,inactive: -15.8%,–
Cc1ccc(-c2nc3ccccn3c2Nc2ccccc2C)s1,inactive: -14.6%,–
COC(=O)C1=C(C)NC(C)=C(C(=O)OC)C1c1ccccc1[N+](=O)[O-],inactive: -7.62%,–
Cc1oc2ncnc(N3CCOCC3)c2c1C(=O)N(Cc1ccccc1)C(C)C,inactive: -13.2%,–
COc1ccc(S(=O)(=O)NCC(c2ccco2)S(=O)(=O)c2cccs2)cc1C (stereo not drawn),inactive: -10.8%,–
CCOc1ccc(C2Nc3c(C)cccc3-c3cc(C)nn32)cc1 (stereo not drawn),–,active: 25.1 µM
Cn1c(=O)c(=O)n(C)c2cc(S(=O)(=O)CCC(=O)Nc3ccc(F)cc3)ccc21,inactive: -15.3%,–
CCOc1ccccc1C(=O)Nc1c(C(=O)Nc2ccc(F)cc2)oc2ccccc12,inactive: -7.52%,–
COc1ccc(NC(=O)c2ccco2)cc1NC(=O)COc1ccccc1,inactive: -9.69%,–
Cc1ccc(C(=O)Nc2nnc(S(=O)(=O)N3c4ccccc4CC3C)s2)cc1 (stereo not drawn),inactive: -16.6%,–
Cn1c(=O)n(C)c2cc(N3CCOCC3)c(NC(=O)c3ccccc3Br)cc21,inactive: 5.9%,–
CCc1ccc(S(=O)(=O)c2cn(C)c3cc(N4CCC(C)CC4)c(F)cc3c2=O)cc1,inactive: -19.4%,–
CCOC(=O)c1ccc(NC(=O)c2c(NCc3cccs3)sc3c2CCCC3)cc1,inactive: -13.9%,–
COc1ccc(OC(=O)c2nc(SCc3ccc(F)cc3)ncc2Cl)cc1,inactive: 0.758%,–
O=c1c(S(=O)(=O)c2ccccc2)cn(Cc2cccc(F)c2)c2cc(N3CCOCC3)c(F)cc12,inactive: -10.2%,–
COc1cccc(-c2nnc(-c3ccccc3NC(=O)c3cccc(C(F)(F)F)c3)o2)c1,inactive: 14.1%,–
CCOC(=O)c1cc(OC(=O)c2ccc(C)cc2)n(-c2ccccc2)n1,inactive: -8.74%,–
Cc1ccc(C2=NN(CC(=O)NCCC(C)C)C(=O)CC2)cc1,inactive: -9.68%,–
CCOc1ccc(NC(=O)c2cnn3c2NC(c2cccc(OC)c2)=CC3c2ccccc2)cc1 (stereo not drawn),inactive: -12.7%,–
CC(=O)Nc1ccc(NC(=O)CSc2nc3ccccc3nc2N2CCC(C)CC2)cc1,inactive: -8.17%,–
COc1ccc(CNC(=O)CN2C(=O)CSc3ccc(S(=O)(=O)N4CCOCC4)cc32)c(OC)c1,inactive: -0.909%,–
COc1cccc(CNC(=O)c2cc(S(=O)(=O)N3CCCCC3)cn2C)c1,inactive: -19.8%,–
CCOc1ccc(CCNC(=O)CN2N=C(c3ccccc3)CCC2=O)cc1OCC,inactive: 19.5%,–
Cc1ccc2nc(N(Cc3cccnc3)C(=O)CCS(=O)(=O)c3ccccc3)sc2c1,inactive: -17.6%,–
CC(=O)c1ccc(NC(=O)CSc2nc(-c3cccc(F)c3)nc3c2c(=O)n(C)c(=O)n3C)cc1,inactive: -17.8%,–

Compound,activation,Potency
Cc1ccc(CN(Cc2ccco2)C(=O)COc2ccc(C(C)C)cc2)cc1,inactive: -30.2%,–
COc1ccc(CNC(=O)c2ccc3c(c2)nc2n3CCOC2)c(OC)c1,inactive: 2.75%,–
Cc1cc(NC(=O)C2=C(O)c3ccccc3S(=O)(=O)N2C)no1,inactive: -12.2%,–
Cc1cc(C)cc(NC(=O)CN2C(=O)c3ccccc3Sc3ncccc32)c1,inactive: 2.66%,–
CN1C(C(=O)Nc2ccc(F)cc2F)=CC(c2ccc3c(c2)OCO3)=NS1(=O)=O,inactive: -11.4%,–
CCCCN(CC)CCCNC(=O)c1cc2c(=O)[nH]c3ccccc3c2s1,inactive: -17%,–
CCOc1cccc(C2c3c(-c4cc(C)ccc4O)n[nH]c3C(=O)N2Cc2ccco2)c1 (stereo not drawn),inactive: -18.1%,–
Cc1ccc(CNC(=O)c2cc3c(=O)n(Cc4cccnc4)ccc3nc2C)cc1,inactive: -7.69%,–
CCOC(=O)C1CCN(C(=O)c2ccc3c(=O)n4nc(Nc5cc(C)ccc5C)sc4nc3c2)CC1,inactive: -2.19%,–
CCOC(=O)C(C)NC(=O)c1c(C)oc2ncn(CC(C)C)c(=O)c12 (stereo not drawn),inactive: 1.67%,–
COc1ccc(OC)c(CCNC(=O)c2csc3c2CCCCC3)c1,inactive: -7.11%,–
Cc1ccc(-c2cc(C(F)(F)F)c(C#N)c(SCC(=O)Nc3ccccc3)n2)cc1,inactive: 6.61%,–
Cc1cccc(C)c1OCc1nc2c3c(-c4ccccc4)c(-c4ccccc4)oc3ncn2n1,inactive: -14%,–
COc1cccc(NC(=O)C2CCN(c3nn4cc(-c5ccc(F)cc5)nc4s3)CC2)c1,inactive: -17%,–
Cc1ccc(NC(=O)Cn2c(=O)oc3cc(S(=O)(=O)NCc4ccccc4)ccc32)cc1,inactive: -43%,–
CCn1cc(C(=O)N2CCN(c3ccc(C(C)=O)cc3)CC2)c2cc(OC)c(OC)cc2c1=O,inactive: 2.12%,–
CCC(=O)C1=C(c2cccc(OC)c2)N(C(=O)CC)n2c(nnc2C2CCCCC2)S1,inactive: -2.74%,–
Cc1csc2nc(COc3ccccc3NC(=O)c3ccc(C(C)(C)C)cc3)cc(=O)n12,inactive: 3.28%,–
Cc1cccc(CNC(=O)CCCn2c(=O)c3cccn3c3ccc(F)cc32)c1,inactive: -8.93%,–
CCNC(=O)c1nn(-c2ccccc2C)nc1CO,inactive: -12%,–
CC(=O)C1=C(c2ccc(C)c(C)c2)N(C(C)=O)n2c(nnc2-c2ccc(Cl)cc2)S1,inactive: -13.3%,–
Cc1cccc2c1-c1sc(C(=O)N(C)c3cccc(C(F)(F)F)c3)cc1CO2,inactive: -16.8%,–
Cc1c(C)c2c(c(C)c1OC(=O)c1cccnc1)CC[C@@](C)(CCC[C@H](C)CCC[C@H](C)CCCC(C)C)O2,inactive: -8.79%,–
Cc1c(NC(=O)c2nc3ccccc3nc2N2CCCCC2)cccc1[N+](=O)[O-],inactive: 3%,–
Cc1ccccc1OC(=O)CSc1nnc(-c2ccc(F)cc2)o1,inactive: -8.06%,–

Compound,activation,Potency
O=C(Cn1c(=O)n(-c2ccccc2Cl)c(=O)c2sc3ccccc3c21)NC1CCCCC1,inactive: -11.6%,–
N#Cc1cccc(NC(=O)C2CCN(S(=O)(=O)c3ccc4[nH]c(=O)ccc4c3)CC2)c1,inactive: -8.24%,–
Cc1ccccc1-n1nc(CO)c(C(=O)NCc2cccs2)n1,inactive: 5.4%,–
Cc1ccc(CN2CCN(CC(=O)Nc3ccc(C)c(C)c3)S2(=O)=O)cc1,inactive: 14.8%,–
CN(C)CCCN1c2ccccc2CCc2ccc(Cl)cc21,inactive: -11.6%,–
CCOc1cc(CNC(=O)NC2COc3ccc(OC)cc3C2)cc(OCC)c1OCC (stereo not drawn),inactive: -5.13%,–
COC(=O)c1ccccc1NC(=O)Nc1nnc(N2CCC(C)CC2)s1,inactive: -5.71%,–
COc1ccc(N2CC(NC(=O)CCCc3ccccc3)CC2=O)cc1 (stereo not drawn),inactive: -5.96%,–
Cc1ccc(C(=O)Nc2ccc(-c3nc4ccccc4s3)cc2C)cc1C,inactive: -4.67%,–
Clc1ccccc1CNc1ncnc2c1c(-c1ccccc1)cn2-c1ccccc1,inactive: -8.71%,–
Cc1cc(C)c(NC(=O)Nc2ccc3snnc3c2)c(C)c1,inactive: -1.83%,–
Cc1ccc(C)c(Cn2c3ccccc3c3cnn(CC(=O)NCc4ccccc4)c(=O)c32)c1,inactive: -17.7%,–
Cc1cccc2nc(-c3cccc(NS(=O)(=O)c4ccccc4)c3)cn12,inactive: -20%,–
Cc1ccc(C)c(CSc2nc3ccncc3n2CC(=O)Nc2ccc(N(C)C)cc2)c1,inactive: -14.6%,–
CCC(C)NC(=O)CSc1nc2c(sc3ccccc32)c(=O)n1Cc1ccccc1Cl (stereo not drawn),inactive: -20.1%,–
Cc1ccccc1OCc1nnc(SCc2cc(=O)c3cccc(F)c3[nH]2)n1C,inactive: -10.8%,–
CC(=O)c1ccc(NC(=O)COCc2cc(-c3ccco3)on2)cc1,inactive: -11%,–
COc1cccc(N2CC(NC(=O)c3cccc(OC)c3OC)CC2=O)c1 (stereo not drawn),inactive: -1.34%,–
Fc1ccccc1Cn1c(-c2ccccc2)nc2ccccc21,inactive: -12.5%,–
COCCCNC(=O)CSc1nc2c(sc3ccccc32)c(=O)n1CCCC(=O)NCCOC,inactive: -19.7%,–
Cc1ccc(-c2cc(C(=O)Oc3ccccc3)c3cc(C)ccc3n2)cc1,inactive: -6.76%,–
COc1ccc2c(c1)c1c(c(=O)n(-c3cccc(Cl)c3)c(=O)n1CC(=O)N1CCCC1)n2C,inactive: -0.299%,–
CCOc1ccccc1NC(=O)Cn1ccn(Cc2ccc(C)cc2)c(=O)c1=O,inactive: -11%,–
CCOC(=O)Cn1nc(C)c(NC(=O)COc2ccc(Cl)cc2C)c1C,inactive: -29.8%,–
COc1ccc2nc(NC(=O)c3nc(S(=O)(=O)Cc4cccc(C)c4)ncc3Cl)sc2c1,inactive: -11.5%,–

Compound,activation,Potency
Clc1ccccc1CN1CCc2sccc2C1,inactive: -10.2%,–
Cc1cc(NC(=O)C2CCN(S(=O)(=O)c3ccc4[nH]c(=O)oc4c3)CC2)ccc1Br,inactive: -12.5%,–
CCC1CCCCN1CCCNC(=O)CN1C(=O)CSc2ccc(S(=O)(=O)N3CCOCC3)cc21 (stereo not drawn),inactive: -16%,–
CC(C)(C)C(=O)NCCc1csc2nc(-c3ccc(F)cc3)nn12,inactive: -9.59%,–
Cc1ccc(Cl)cc1N1CCN(CCNC(=O)Nc2ccccc2Cl)CC1,inactive: -9.64%,–
COc1cc(NC(=O)c2nc(-c3ccncc3)no2)cc(OC)c1OC,inactive: -16.3%,–
COc1ccc(/C=C\C(=O)NC2CC(=O)N(c3ccccc3)C2)cc1OC (stereo not drawn),inactive: -14.2%,–
Cc1ccc(NC(=O)C(Cc2c[nH]c3ccccc23)NC(=O)OCC(C)C)cc1 (stereo not drawn),inactive: -13.6%,–
COC(=O)c1nc2n(n1)C(c1cc(OC)ccc1OC)C(C(=O)Nc1ccc(C)cc1C)=C(C)N2 (stereo not drawn),inactive: 3.17%,–
Cc1ccc(CN(C(=O)COc2c(C)cccc2C)C2CCS(=O)(=O)C2)o1 (stereo not drawn),inactive: -7.89%,–
Nc1ccc(O)c(C(=O)O)c1,inactive: -8.32%,–
Cc1ccc2oc3c(c(=O)c2c1)C1(C(=O)N(C)c2ccccc21)N(CCCO)C3=O (stereo not drawn),inactive: -8.16%,–
Cc1ccc(Cl)cc1NC(=O)C(=O)NCC(c1cccnc1)N1CCc2ccccc21 (stereo not drawn),inactive: -15.7%,–
O=C(CCS(=O)(=O)c1cccc2nsnc12)Nc1ccc(F)cc1,inactive: -4.75%,–
CCc1ccc(-n2c(=O)c3c4c(sc3n(CC(=O)c3ccc(Cl)cc3)c2=O)CCC4)cc1,inactive: 8.08%,–
CSc1cccc(NC(=O)C2CCN(C(=O)c3cnn(-c4ccccc4)c3-n3cccc3)CC2)c1,inactive: 8.18%,–
COc1ccc2oc(-c3ccc(C)c(NC(=O)COc4cc(C)cc(C)c4)c3)nc2c1,inactive: -15.3%,–
Cc1ccccc1C(=O)Nc1cc(-c2ccc(Cl)cc2)nn1-c1ccccc1,inactive: -11.5%,–
Cc1ccc2c(c1)C(c1ccc(F)cc1)N(C(=O)c1ccc(OC(C)C)cc1)CC(=O)N2 (stereo not drawn),inactive: 2.86%,–
Cc1nn(-c2ccc(N3CCOCC3)nn2)c(C)c1CCC(=O)NCc1ccc(F)cc1,inactive: -4.5%,–
Cc1ccc(-n2nnc(C(=O)Nc3cc(F)ccc3F)c2C)cc1F,inactive: -21%,–
O=C(c1ccccc1)N1c2ncnn2C2(CCCCC2)[C@@H]2CCCC[C@@H]21,inactive: -16.3%,–
COc1ccc(C(=O)CSc2c(C(C)C)cnc3c2c(=O)n(C)c(=O)n3C)cc1,inactive: -10.5%,–
